The record followed here is paper PMC8858569.

The chains behind the UniProt entries cited, without tags or fusion partners. Residues count along the entry.
UniProt Q99523, residues 779-831: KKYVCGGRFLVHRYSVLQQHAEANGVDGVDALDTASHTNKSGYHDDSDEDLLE
UniProt Q9UJY4: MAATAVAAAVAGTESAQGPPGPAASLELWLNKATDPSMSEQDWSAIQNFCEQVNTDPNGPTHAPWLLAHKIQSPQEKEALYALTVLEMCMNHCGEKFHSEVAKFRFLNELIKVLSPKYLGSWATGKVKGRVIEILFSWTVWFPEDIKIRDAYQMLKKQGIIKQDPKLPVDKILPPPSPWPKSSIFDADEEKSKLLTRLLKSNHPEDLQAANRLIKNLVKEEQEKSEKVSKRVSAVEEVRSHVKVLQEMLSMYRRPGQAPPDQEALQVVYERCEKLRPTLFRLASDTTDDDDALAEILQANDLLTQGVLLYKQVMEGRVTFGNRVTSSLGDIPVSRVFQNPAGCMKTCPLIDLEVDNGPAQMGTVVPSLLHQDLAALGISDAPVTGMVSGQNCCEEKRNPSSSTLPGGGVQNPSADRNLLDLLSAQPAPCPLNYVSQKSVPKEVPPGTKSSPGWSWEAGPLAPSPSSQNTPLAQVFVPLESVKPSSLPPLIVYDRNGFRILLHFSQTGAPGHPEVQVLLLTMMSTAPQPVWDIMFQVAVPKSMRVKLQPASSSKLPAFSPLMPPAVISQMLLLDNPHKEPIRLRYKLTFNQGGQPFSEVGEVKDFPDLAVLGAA
UniProt Q9NRD5: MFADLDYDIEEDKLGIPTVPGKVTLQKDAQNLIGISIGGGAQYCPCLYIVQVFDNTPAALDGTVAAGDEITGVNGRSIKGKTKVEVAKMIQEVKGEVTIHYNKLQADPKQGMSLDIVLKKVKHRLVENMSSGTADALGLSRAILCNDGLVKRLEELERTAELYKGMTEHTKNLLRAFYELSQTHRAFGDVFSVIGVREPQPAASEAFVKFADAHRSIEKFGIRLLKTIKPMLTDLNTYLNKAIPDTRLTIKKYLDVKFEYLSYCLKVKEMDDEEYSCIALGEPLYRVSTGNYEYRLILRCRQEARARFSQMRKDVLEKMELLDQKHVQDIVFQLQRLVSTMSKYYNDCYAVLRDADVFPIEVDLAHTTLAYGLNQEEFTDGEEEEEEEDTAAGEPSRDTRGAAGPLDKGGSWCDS
UniProt Q62083: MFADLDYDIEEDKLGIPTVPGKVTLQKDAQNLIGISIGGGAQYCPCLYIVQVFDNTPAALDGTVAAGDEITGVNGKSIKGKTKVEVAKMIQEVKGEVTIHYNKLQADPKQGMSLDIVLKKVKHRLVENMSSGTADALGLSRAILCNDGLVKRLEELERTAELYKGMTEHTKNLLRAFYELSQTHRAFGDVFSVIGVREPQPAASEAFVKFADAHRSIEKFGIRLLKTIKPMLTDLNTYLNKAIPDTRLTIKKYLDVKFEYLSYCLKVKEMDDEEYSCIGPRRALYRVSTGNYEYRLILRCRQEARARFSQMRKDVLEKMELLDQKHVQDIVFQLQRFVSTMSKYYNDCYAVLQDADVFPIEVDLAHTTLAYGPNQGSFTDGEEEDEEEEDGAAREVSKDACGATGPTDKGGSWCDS

One assay has as its target T70mV-Sortilin-CD (UniProt Q99523). The assay is described as follows: recruitment to mitochondria in cells (confocal microscopy); COS7 cells co-transfected with a cytoplasmic domain placed on mitochondria by Tom70(1-88)-mVenus and a tdTomato-tagged adaptor; recruitment of tdTomato to mitochondria read out.
The target in a further assay is T1, T70mV-SorLA-CD (UniProt Q92673).
T1 sequence: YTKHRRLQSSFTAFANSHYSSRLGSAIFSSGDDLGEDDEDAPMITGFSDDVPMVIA
Described as above.

Assay [1] addresses T2, GST fused to the cytoplasmic domain of SorLA (UniProt Q92673).
T2 sequence: T1 sequence
The assay is described as follows: pull-down; GST or GST-SorLA-cd prebound to glutathione magnetic agarose beads, incubated 2 h at 4 °C with lysate of CHO cells stably expressing PICK1-Myc (150 mM NaCl, 1% Triton X-100, 20 mM Tris-HCl, 10 mM EDTA, pH 8.0); immunoblot with anti-PICK1; only the target purified.

For assay [2], the target named is T3, GAL4 DNA-binding domain fused to the wild-type cytoplasmic domain of SorLA (UniProt Q92673).
T3 sequence: T1 sequence
The assay is described as follows: two-hybrid; mammalian two-hybrid (modified Checkmate system) in N2a cells; GAL4 DNA-binding domain fused to the cytoplasmic domains, VP16 activation domain fused to PICK1; firefly luciferase normalised to co-transfected eGFP.

Assay [3] has as its target GAL4 DNA-binding domain fused to the wild-type cytoplasmic domain of Sortilin (UniProt Q99523). The assay is described as above.
The target of assay [4] is T2, GST fused to the cytoplasmic domain of SorLA. Kind of assay: pull-down; GST or GST-SorLA-cd on glutathione magnetic agarose beads, incubated overnight with solubilised mouse forebrain extract (S3; 0.1 mM EDTA, 1% Triton, pH 7.4); immunoblot with anti-PICK1; only the target purified.

These are yes or no findings as the source states them, for the method shown. For some assays here: In cells and extracts the contact can be indirect. Some binding calls cover weakened binding; strength is not graded here. For some assays here: Tags and fused reporters may be left off the sequences shown.

Turning to “tdTomato-GGA2 (from UniProt Q9UJY4 1-613)”, the binding result with T70mV-Sortilin-CD and with T70mV-SorLA-CD was “binds” each time. As for “tdTomato-PICK1 (from UniProt Q9NRD5 1-415)”, the binding entry with T70mV-Sortilin-CD is “no binding”; with T70mV-SorLA-CD it was “binds”. With “Myc-tagged PICK1 (from UniProt Q9NRD5 1-415)”, in assay [1], the binding result is listed as “binds”.

Take “VP16 transcriptional activation domain fused to full length PICK1 (from UniProt Q9NRD5 1-415)”: the figures for the binding result in assay [2] and in assay [3] were “binds” and “no binding”, respectively. As to “PICK1 of mouse brain (from UniProt Q62083 1-416)”, the binding result in assay [4] is on record as “binds”.
